Test results: paper PMC3402478, “ADP Ribosylation by PARP-1 Suppresses HOXB7 Transcriptional Activity”
These are yes or no findings as the source states them, for the method shown. In cells and extracts the contact can be indirect. Some entries that bind do so weakly or less than the wild type. Values belong to the substance of their own block, whether it stands above or below them.

Chains of the proteins cited; added tags and fusions are not shown. Lines headed by an entry give the natural chain unless they say otherwise; changes in a name come on top. A line that says so, or that is headed by a name, gives the form on record, which may keep a tag or linker. Residues count along the entry.
UniProt P09629: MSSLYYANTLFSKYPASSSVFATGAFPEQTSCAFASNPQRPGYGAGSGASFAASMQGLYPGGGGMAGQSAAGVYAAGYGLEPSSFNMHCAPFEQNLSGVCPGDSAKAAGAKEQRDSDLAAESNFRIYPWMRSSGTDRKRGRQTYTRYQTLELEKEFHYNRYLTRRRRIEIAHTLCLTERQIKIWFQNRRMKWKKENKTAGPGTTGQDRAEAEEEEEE
FB7Δ1-14: residues 15-217 of P09629
FB7Δ38-79 (P09629, form named): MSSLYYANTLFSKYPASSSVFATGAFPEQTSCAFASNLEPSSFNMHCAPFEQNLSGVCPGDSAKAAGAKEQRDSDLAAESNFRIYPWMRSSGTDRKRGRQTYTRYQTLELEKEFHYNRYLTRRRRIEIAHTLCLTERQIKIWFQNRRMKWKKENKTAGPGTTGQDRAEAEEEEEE
FB7Δ81-120 (P09629, form named): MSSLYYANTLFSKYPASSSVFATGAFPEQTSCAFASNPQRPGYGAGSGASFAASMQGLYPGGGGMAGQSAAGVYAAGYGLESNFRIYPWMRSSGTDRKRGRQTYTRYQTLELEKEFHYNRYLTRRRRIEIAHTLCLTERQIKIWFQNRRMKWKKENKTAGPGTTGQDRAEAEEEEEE
UniProt P31268: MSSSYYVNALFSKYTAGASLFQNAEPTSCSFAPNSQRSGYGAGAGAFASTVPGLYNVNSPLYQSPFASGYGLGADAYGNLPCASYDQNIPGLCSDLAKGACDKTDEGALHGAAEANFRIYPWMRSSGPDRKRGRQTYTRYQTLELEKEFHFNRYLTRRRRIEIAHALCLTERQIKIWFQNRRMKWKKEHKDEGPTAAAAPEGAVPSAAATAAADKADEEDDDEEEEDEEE
UniProt P17509: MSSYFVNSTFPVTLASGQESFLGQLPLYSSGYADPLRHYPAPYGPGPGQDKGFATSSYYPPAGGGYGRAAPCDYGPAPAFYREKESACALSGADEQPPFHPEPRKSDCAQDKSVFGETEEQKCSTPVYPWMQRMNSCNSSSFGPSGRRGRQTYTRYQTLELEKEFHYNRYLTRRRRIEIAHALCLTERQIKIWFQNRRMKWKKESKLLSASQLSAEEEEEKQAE
UniProt P20719: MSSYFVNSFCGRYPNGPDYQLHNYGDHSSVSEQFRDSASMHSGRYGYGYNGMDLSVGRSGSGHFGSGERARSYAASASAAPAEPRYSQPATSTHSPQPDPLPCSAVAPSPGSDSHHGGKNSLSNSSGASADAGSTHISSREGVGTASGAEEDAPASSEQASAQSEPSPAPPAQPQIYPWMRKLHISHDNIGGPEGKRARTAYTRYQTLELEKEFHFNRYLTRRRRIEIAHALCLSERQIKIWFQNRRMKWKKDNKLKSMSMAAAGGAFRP
UniProt P09630: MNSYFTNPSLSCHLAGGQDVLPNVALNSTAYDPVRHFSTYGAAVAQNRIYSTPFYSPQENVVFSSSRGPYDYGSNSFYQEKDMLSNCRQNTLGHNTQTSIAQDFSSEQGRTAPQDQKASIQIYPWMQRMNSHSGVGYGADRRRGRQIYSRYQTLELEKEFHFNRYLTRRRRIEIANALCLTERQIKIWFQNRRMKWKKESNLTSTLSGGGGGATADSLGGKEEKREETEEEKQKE
UniProt P31273: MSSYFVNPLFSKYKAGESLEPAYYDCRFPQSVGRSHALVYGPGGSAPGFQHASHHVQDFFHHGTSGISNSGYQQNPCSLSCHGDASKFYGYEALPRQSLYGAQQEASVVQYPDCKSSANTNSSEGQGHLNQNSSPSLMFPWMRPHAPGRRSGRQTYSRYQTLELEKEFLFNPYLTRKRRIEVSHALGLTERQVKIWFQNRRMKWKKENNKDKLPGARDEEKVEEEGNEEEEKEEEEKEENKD
UniProt P09874: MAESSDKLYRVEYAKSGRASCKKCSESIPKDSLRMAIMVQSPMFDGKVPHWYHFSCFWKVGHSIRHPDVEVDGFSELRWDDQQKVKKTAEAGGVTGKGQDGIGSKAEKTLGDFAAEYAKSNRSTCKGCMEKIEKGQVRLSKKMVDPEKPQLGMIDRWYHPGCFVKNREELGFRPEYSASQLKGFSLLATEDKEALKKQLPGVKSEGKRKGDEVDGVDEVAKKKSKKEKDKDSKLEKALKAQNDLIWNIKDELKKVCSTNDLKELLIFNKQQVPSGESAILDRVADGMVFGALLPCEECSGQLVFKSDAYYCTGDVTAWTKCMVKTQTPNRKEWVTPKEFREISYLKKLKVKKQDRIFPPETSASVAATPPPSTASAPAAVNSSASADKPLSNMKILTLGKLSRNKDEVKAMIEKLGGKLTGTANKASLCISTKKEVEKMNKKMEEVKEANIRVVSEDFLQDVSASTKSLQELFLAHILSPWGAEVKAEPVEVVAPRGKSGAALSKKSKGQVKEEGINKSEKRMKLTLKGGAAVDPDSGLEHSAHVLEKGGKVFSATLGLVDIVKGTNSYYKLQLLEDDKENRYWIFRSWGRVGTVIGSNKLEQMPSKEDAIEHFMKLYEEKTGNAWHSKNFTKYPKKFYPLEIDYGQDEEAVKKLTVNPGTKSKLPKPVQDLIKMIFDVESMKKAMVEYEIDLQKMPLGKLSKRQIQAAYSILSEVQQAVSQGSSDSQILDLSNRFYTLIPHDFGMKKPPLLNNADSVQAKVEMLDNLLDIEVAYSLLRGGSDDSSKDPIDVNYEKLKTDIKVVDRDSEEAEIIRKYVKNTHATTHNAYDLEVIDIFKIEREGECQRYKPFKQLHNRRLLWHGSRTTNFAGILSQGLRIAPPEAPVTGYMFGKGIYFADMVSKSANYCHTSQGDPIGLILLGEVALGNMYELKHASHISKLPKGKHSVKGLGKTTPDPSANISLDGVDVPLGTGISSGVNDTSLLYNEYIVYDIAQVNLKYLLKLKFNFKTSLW

What was measured:
GST-HOXB7 fusion protein = GST-HOXB7 fusion protein (UniProt P09629); assay: pull-down; GST-HOXB7 immobilized on glutathione-Sepharose, incubated with ^35S labelled PARP-1 or PARP-1 deletion proteins from in vitro TNT in NETN buffer at 4°C for 2 hours; autoradiography; only the target purified
FB7Δ38-79 = FB7Δ38-79 (UniProt P09629); assay: co-IP; Flag-tagged HOXB7 or its deletion/mutant constructs transiently transfected into CHO cells together with a PARP expression construct; immunoprecipitation with FLAG antibodies, immunoblot with PARP antibodies (the methods say HEK293T, myc-tagged PARP1, anti-myc blot)
FB7WM (W129F, M130I) = FB7WM (W129F, M130I) (UniProt P09629); assay: as above
FB7Δ1-14 = FB7Δ1-14 (UniProt P09629); assay: as above
FB7Δ81-120 = FB7Δ81-120 (UniProt P09629); assay: as above
Flag-tagged HOXA7 = Flag-tagged HOXA7 (UniProt P31268); assay: co-IP; SKBR3 cells transfected with Flag-tagged HOX proteins; lysates immunoprecipitated with anti-Flag antibody, western blotted with anti-PARP-1 (endogenous PARP-1)
Flag-tagged HOXB6 = Flag-tagged HOXB6 (UniProt P17509); assay: as above
Flag-tagged HOXA5 = Flag-tagged HOXA5 (UniProt P20719); assay: as above
Flag-tagged HOXC6 = Flag-tagged HOXC6 (UniProt P09630); assay: as above
Flag-tagged HOXC8 = Flag-tagged HOXC8 (UniProt P31273); assay: as above

Substance: PARP-1 N-terminal cleavage domain (1-214), in vitro transcribed and translated (from UniProt P09874 1-214) (domain or fragment)
binding (GST-HOXB7 fusion protein): binds

Substance: PARP-1 N-terminal part (1-372), in vitro transcribed and translated (from UniProt P09874 1-372) (domain or fragment)
binding (GST-HOXB7 fusion protein): binds

Substance: poly (ADP-ribose) polymerase-1 (PARP-1), endogenous in SKBR3 cells (from UniProt P09874 1-1014) (enzyme)
binding (Flag-tagged HOXA7): binds
binding (Flag-tagged HOXB6): binds
binding (Flag-tagged HOXA5): binds
binding (Flag-tagged HOXC6): binds
binding (Flag-tagged HOXC8): binds

Second part, the substance after the results:

binding (GST-HOXB7 fusion protein): no binding
Substance: PARP-1 C-terminal moiety (372-1014), in vitro transcribed and translated (from UniProt P09874 372-1014) (domain or fragment)

binding (FB7Δ38-79): binds
binding (FB7WM (W129F, M130I)): binds
binding (FB7Δ1-14): binds
binding (FB7Δ81-120): binds
Substance: PARP-1 from a PARP expression construct (PARPpCR3.1), in CHO cells (from UniProt P09874 1-1014) (enzyme)
